Test results taken from PubChem BioAssay AID2546 (National Center for Advancing Translational Sciences (NCATS), 2010).
Screen size: about 310,000 compounds; about 11,000 (3.5%) were called active. The inconclusive results got no clear call from the source; some entries with a clear call stand among them for comparison. Calls follow the shape of the dose curve; as a rule, active = well fitted inhibition curve with a large enough effect; inconclusive = small, poorly fitted or top-dose-only effect, or effect the other way; inactive = flat fitted curve, though single readings scatter. No potency is given beside an inconclusive call; the fits are too rough.

experiment: VP16 counterscreen qHTS for inhibitors of ROR gamma transcriptional activity; settings: Drosophila S2 Gal4-VP16 UAS-luciferase, luminescence, 20 h; series mostly up to 53.6 µM;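 also: Gal4-VP16 expression switched on by copper sulfate through the metallothionein promoter; nearly all actives have a fitted effect of over 50% in size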
Potency is read from the fitted curve at half-maximal effect; tags tell the direction and shape of the fitted curve.

SMILES | Potency
Cc1ccc(NC(=O)c2ccc3c(=O)n4c(nc3c2)CCCCC4)cc1F | inactive
COc1ccc(/C=C/C(=O)NC(=S)NNC(=O)c2cc(OC)c(OC)c(OC)c2)cc1 | inactive
CC1CC(=O)N(c2ccc(NCc3ccc(Cl)cc3)c([N+](=O)[O-])c2)C1=O (centres undefined) | inconclusive [inhibitor, single point]
COc1ccc(CCNC(=S)Nc2cc(C)cc(C)c2)cc1 | active: 12.6 µM
COc1ccc(-n2ccc(=O)c(C(=O)O)n2)c(OC)c1 | inactive
N#Cc1cc2c(nc1SCc1ccncc1)CCC2 | inconclusive [activator, partial curve]
COC(=O)/C=C/CC(C)OS(N)(=O)=O (centres undefined) | inactive
CS(=O)(=O)Nc1cccc(-c2nc(NCc3cccnc3)c3ccccc3n2)c1 | inactive
Cc1c(NC(=S)N/N=C/c2ccc(N(C)C)cc2)c(=O)n(-c2ccccc2)n1C | inconclusive [inhibitor, single point]
Fc1ccc2nc(Nc3nc4c(F)cccc4s3)sc2c1 | active: 5.62 µM
CC(C)CC1(C)N=C(c2ccccc2)C(=S)N1 (centres undefined) | active: 2.82 µM
Cc1csc2ncnc(N3CCN(C(=S)Nc4ccc(F)cc4F)CC3)c12 | inconclusive [inhibitor, single point]
COc1ccc(C(=O)c2ccc(N3CCN(C(=O)c4ccc(F)cc4)CC3)c(F)c2)cc1Br | inactive
COc1ccccc1-n1c(-c2ccccc2)n[nH]c1=S | inconclusive [inhibitor, single point]
Cc1ccc(NC(=O)N2CCc3ccccc32)cc1C | inconclusive [inhibitor, single point]
CCSc1nnc(NC(=O)c2cccc(OCc3c(C)noc3C)c2)s1 | inactive
Cc1ccnc(NC(=O)/C=C/c2ccccc2[N+](=O)[O-])c1 | inactive
O=C1NC(=S)N(C(=O)c2ccc(F)cc2)/C1=C/c1ccccc1 | inactive
Cc1ccc2c(C(=O)CCl)c(C)[nH]c2c1 | inconclusive [inhibitor, single point]
S=C1NC2=C(CCC/C2=C\c2ccc(Cl)cc2)C(c2ccc(Cl)cc2)N1 (centres undefined) | inconclusive [inhibitor, partial curve]
O=C(Cc1cccs1)N1CCN(c2nc(-c3ccc(Cl)cc3)cs2)CC1 | inconclusive [inhibitor, single point]
COc1ccc(S(=O)(=O)CCC(=O)N2CCN(c3ccccc3F)CC2)cc1 | inactive
CSc1cccc(NC(=S)N2CCC(N(C)C3CCCC3)CC2)c1 | inactive
Cn1c(C(=O)OC(C(=O)NCC2CCCO2)c2cccnc2)cc2sccc21 (centres undefined) | inactive
COc1ccc(/C=N/NC(=S)NC2CCS(=O)(=O)C2)cc1OC (centres undefined) | inconclusive [inhibitor, single point]
O=C(c1cccc(Cl)c1)N1CCN(Cc2ccncc2)CC1 | inactive
NNC(=S)NCc1cccnc1 | inconclusive [inhibitor, single point]

SMILES | Potency
Cc1cc2ccccc2c(=O)n1CC(=O)NCCC1=CCCCC1 | inactive
CCc1ccccc1NC(=S)/N=C(\N)Nc1nc(C)c2cc(C)ccc2n1 | active: 3.16 µM
CC(=O)c1cn(CCOc2ccccc2C)c2ccccc12 | active: 4.47 µM
Cc1cc(C)cc(NC(=S)Nc2ccccn2)c1 | active: 4.47 µM
CCc1ccccc1NC(=O)c1noc(C(C)C)c1[N+](=O)[O-] | inactive
Cn1ncc(Cl)c(Oc2ccc(C(C)(C)C)cc2)c1=O | active: 35.5 µM
COc1ccc2c(c1)O[C@H](c1ccc3c(c1)OCO3)[C@@H](OC(=O)N[C@H](C)C1CCCCC1)C2=O | inconclusive [inhibitor, single point]
CCOc1c(C(N)=O)c(-c2ccccc2)c2c(=O)[nH]c3ccccc3n12 | inconclusive [inhibitor, single point]
CC1=CC(=C(C#N)C#N)C=C(C)N1CCN1CCN(C(=O)Nc2ccc(Cl)c(Cl)c2)CC1 | inconclusive [inhibitor, single point]
CN(C)c1ncc2nc(CCc3ccccc3)c(=O)n(CCc3ccccc3)c2n1 | inactive
CCOc1ccccc1OCCCCCc1c(C)n[nH]c1C | inconclusive [inhibitor, single point]
COC(=O)c1cnn(-c2ccccc2)c1C(OC)OC | inactive
Nc1c(S(=O)(=O)c2ccccc2)c2nc3ccccc3nc2n1Cc1ccco1 | inconclusive [inhibitor, single point]
COC(=O)c1c(-c2cccnc2)csc1NC(=O)c1cc(C)on1 | inactive
CC1(C)Cc2c(sc3nc(-c4cc5ccccc5o4)n(N)c(=O)c23)CO1 | inactive
COc1ccc(/C(O)=C/c2nc3ccc(C(=O)NCCc4cccc(C)c4)cc3[nH]c2=O)cc1OC | inconclusive [inhibitor, partial curve]
CC(=O)Nc1ccc(SC(C)C(=O)NC(N)=O)cc1 (centres undefined) | inactive
COCc1[nH]nc2c1C(c1c(F)cccc1Cl)C(C#N)=C(N)O2 (centres undefined) | active: 17.8 µM
O=C(O)Cc1cccc(OCCCN(Cc2cccc(C(F)(F)F)c2Cl)CC(c2ccccc2)c2ccccc2)c1 | inconclusive [inhibitor, single point]
CCC1=C2CC[C@H]3C(=O)N(c4ccccc4)C(=O)[C@H]3[C@H]2[C@@]2(C)C(=O)N(Cc3ccccc3)C(=O)N2C1=O | inactive
Cc1ccccc1C(=O)O | inconclusive [activator, single point]
Fc1ccc(/C=N/NC(=S)Nc2cccnc2)cc1 | active: 0.355 µM
O=c1[nH]c(CCl)nc2cc(-c3ccc(F)cc3)sc12 | inconclusive [inhibitor, single point]
Nc1c(C(=O)Nc2cccc(C(=O)O)c2)sc2nc3c(cc12)CCCC3 | active: 3.16 µM
Cc1n[nH]c(=O)nc1N/N=C/c1ccco1 | inconclusive [inhibitor, single point]
COC(=O)c1ccc(OCC(O)CN2CCc3cc(OC)c(OC)cc3C2c2ccccc2)cc1 (centres undefined) | inconclusive [inhibitor, single point]
COc1cc(C(=O)Nc2ccc(N3CCOCC3)cc2)ccc1OCc1c(C)noc1C | inactive

SMILES | Potency
CN(C)c1ccc(N=Nc2ccccc2C(=O)OCC(=O)Nc2ccccc2C(F)(F)F)cc1 | inactive
COc1ccc(C2(c3ccc(OC)cc3)NC(=O)N(CC(=O)Nc3ccccc3C)C2=O)cc1 | inactive
COc1cc2nc(COc3ccccc3[N+](=O)[O-])oc(=O)c2cc1OC | inconclusive [activator, single point]
O=C(O)c1ccc(Cl)c(S(=O)(=O)Nc2ccccc2C(=O)Nc2ccc(Cl)cc2)c1 | inactive
CCCNC(=O)c1ccc(COc2ccc(C(C)(C)C)cc2)o1 | inconclusive [inhibitor, single point]
O=C(O)c1ccc(N/N=C/c2c[nH]c3ccccc23)cc1 | active: 0.316 µM
O=C(Nc1ccc(Cl)cc1)Nc1cccc2nsnc12 | inconclusive [activator, single point]
C=CCN1C(=S)CC(c2ccccc2)=Nc2ccccc21 | inactive
Cn1ncc2c(Nc3ccc(Cl)cc3)ncnc21 | inconclusive [inhibitor, single point]
O=C(NCc1nc2ccccc2[nH]1)C1=C[C@@H](c2csc3ccccc23)C[C@@H](OCCCCO)O1 | inactive
N#CC1(C#N)CC(C=O)=C(N)C1(C#N)CC(=O)C12CC3CC(CC(C3)C1)C2 (centres undefined) | inconclusive [inhibitor, single point]
Cc1ccc(OC(F)F)c(NC(=O)Nc2cccc(C(F)(F)F)c2)c1 | active: 6.31 µM
COc1ccc(CN2C(=O)C(O)(CC(=O)c3c(C)n[nH]c3C)c3ccccc32)cc1OC (centres undefined) | inactive
CCOC(=O)Cc1csc(NC(=S)NC(=O)c2ccc(F)cc2)n1 | inconclusive [inhibitor, single point]
COc1cccc(OCCn2cc(C(C)=O)c3ccccc32)c1 | inconclusive [inhibitor, partial curve]
Cc1ccc(CNC(=O)CCCOc2cc(=O)n(C)c3ccccc23)o1 | inconclusive [activator, partial curve]
O=C1N=C(N2CCOCC2)S/C1=C\c1ccc(-c2ccccc2Cl)o1 | inactive
CCn1nccc1C(=O)Nc1ccccc1OC | inactive
CC(=O)c1c(C)[nH]c(C(=O)OCc2ccc(Br)cc2)c1C | inconclusive [inhibitor, single point]
CC(C)OCCCNc1ncnc2c1cnn2-c1ccccc1 | inconclusive [inhibitor, single point]
S=C(Nc1ccccc1Cl)N1CCOCC1 | inconclusive [activator, single point]
COc1cc(NC(=O)CN2CCC(Cc3ccccc3)CC2)c(C)cc1[N+](=O)[O-] | inconclusive [activator, single point]
COc1ccc(CC(=O)Nc2ccc(-c3noc(COc4ccccc4C)n3)cc2)cc1 | inconclusive [inhibitor, partial curve]
COCCn1c(=S)[nH]c2cc(C(=O)N(CCO)Cc3ccccc3)ccc2c1=O | inconclusive [inhibitor, single point]
Cc1ccc(NC(=O)c2nc[nH]c2C(=O)N[C@@H](CCCCNC(=O)OC(C)(C)C)C(=O)OC(C)(C)C)cc1 | inconclusive [inhibitor, single point]
